{"source": "the supplement of paper PMC8728848", "binders": {"B1": {"name": "MGL2 (Mus musculus), Q8JZN1 (protein)", "chain": "MTMRYENFQNLEREEKNQEMRNGDKKGGMESPKFALIPSQSFLWRILSWTHLLLFSLGLSLLLLVVISVIGSQNSQLRRDLGTLRAILDNTTSKIKAEFQSLDSRADNFEKGISSLKVDVEDHRQELQAGRDLSQKVTSLESTLEKREQALKTDLSDLTDHVQQLETDLKALTCQLANLKNNGSEVACCPLHWTEHEGSCYWFSESEKSWPEADKYCRLENSHLVVVNSLEEQNFLQNRLANVLSWMGLTDQNGPWRWVDGTDFDKGFKNWRPLQPDNWHGHMLGGGEDCAHFSYDGRWNDDVCQRHYHWICETELGKASSAHSPQLIASVP"}}, "experiment_in_all_cases": "glycan array binding signal (z-score within array); higher = stronger binding", "details_in_all_cases": "glycan notation: IUPAC condensed, linker removed", "key": {"[1]": {"target": "Gal(b1-3)GlcNAc(b1-2)Man(a1-3)[Gal(b1-3)GlcNAc(b1-2)Man(a1-6)]Man(b1-4)GlcNAc(b1-4)GlcNAc", "in_short": "(§1)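 Arrays were curated from the Consortium for Functional Glycomics database, 3228 in total, and kept only where the protein sequence was available. Binding is expressed as a within-array Z-score. This score was averaged across arrays of the same protein sequence at different concentrations or buffers and across linkers, and negative values can be read as non-binding.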"}, "[2]": {"target": "Gal(b1-3)GlcNAc(b1-2)Man(a1-3)[Gal(b1-3)GlcNAc(b1-2)Man(a1-6)]Man(b1-4)GlcNAc(b1-4)[Fuc(a1-6)]GlcNAc", "in_short": "as §1"}, "[3]": {"target": "Gal(b1-3)GlcNAc(b1-2)Man(a1-3)[GlcNAc(b1-4)][Gal(b1-3)GlcNAc(b1-2)Man(a1-6)]Man(b1-4)GlcNAc(b1-4)GlcNAc", "in_short": "as §1"}, "[4]": {"target": "Gal(b1-3)GlcNAc(b1-2)[Gal(b1-3)GlcNAc(b1-6)]Man(a1-6)[Gal(b1-3)GlcNAc(b1-2)Man(a1-3)]Man(b1-4)GlcNAc(b1-4)GlcNAc", "in_short": "as §1"}, "[5]": {"target": "Gal(b1-3)GlcNAc(b1-3)Gal(b1-3)GlcNAc", "in_short": "as §1"}, "[6]": {"target": "Gal(b1-3)GlcNAc(b1-3)Gal(b1-4)Glc", "in_short": "as §1"}, "[7]": {"target": "Gal(b1-3)GlcNAc(b1-3)Gal(b1-4)GlcNAc", "in_short": "as §1"}, "[8]": {"target": "Gal(b1-3)GlcNAc(b1-3)Gal(b1-4)GlcNAc(b1-2)Man(a1-3)[Gal(b1-3)GlcNAc(b1-3)Gal(b1-4)GlcNAc(b1-2)Man(a1-6)]Man(b1-4)GlcNAc(b1-4)GlcNAc", "in_short": "as §1"}, "[9]": {"target": "Gal(b1-3)GlcNAc(b1-3)Gal(b1-4)GlcNAc(b1-2)[Gal(b1-3)GlcNAc(b1-3)Gal(b1-4)GlcNAc(b1-6)]Man(a1-6)[Gal(b1-3)GlcNAc(b1-3)Gal(b1-4)GlcNAc(b1-2)Man(a1-3)]Man(b1-4)GlcNAc(b1-4)[Fuc(a1-6)]GlcNAc", "in_short": "as §1"}, "[10]": {"target": "Gal(b1-3)GlcNAc(b1-3)Gal(b1-4)GlcNAc(b1-3)Gal(b1-4)GlcNAc(b1-2)[Gal(b1-3)GlcNAc(b1-3)Gal(b1-4)GlcNAc(b1-3)Gal(b1-4)GlcNAc(b1-6)]Man(a1-6)[Gal(b1-3)GlcNAc(b1-3)Gal(b1-4)GlcNAc(b1-3)Gal(b1-4)GlcNAc(b1-2)Man(a1-3)]Man(b1-4)GlcNAc(b1-4)[Fuc(a1-6)]GlcNAc", "in_short": "as §1"}, "[11]": {"target": "Gal(b1-3)GlcNAc(b1-3)Gal(b1-4)GlcNAc(b1-6)[Gal(b1-3)GlcNAc(b1-3)]Gal(b1-4)Glc", "in_short": "as §1"}, "[12]": {"target": "Gal(b1-3)GlcNAc(b1-3)Gal(b1-4)[Fuc(a1-3)]GlcNAc", "in_short": "as §1"}, "[13]": {"target": "Gal(b1-3)GlcNAc(b1-3)Gal(b1-4)[Fuc(a1-3)]GlcNAc(b1-6)[Gal(b1-3)GlcNAc(b1-3)]Gal(b1-4)Glc", "in_short": "as §1"}, "[14]": {"target": "Gal(b1-3)GlcNAc(b1-3)GalNAc", "in_short": "as §1"}, "[15]": {"target": "Gal(b1-3)GlcNAc(b1-6)Gal(b1-4)GlcNAc", "in_short": "as §1"}, "[16]": {"target": "Gal(b1-3)GlcNAc(b1-6)GalNAc", "in_short": "as §1"}, "[17]": {"target": "Gal(b1-3)GlcNAc(b1-6)[Gal(b1-3)]GalNAc", "in_short": "as §1"}, "Gal(b1-3)GlcNAc6S": {"target": "Gal(b1-3)GlcNAc6S", "in_short": "as §1"}, "[18]": {"target": "Gal(b1-3)[Fuc(a1-4)]GlcNAc", "in_short": "as §1"}, "[19]": {"target": "Gal(b1-3)[Fuc(a1-4)]GlcNAc(b1-2)Man", "in_short": "as §1"}, "[20]": {"target": "Gal(b1-3)[Fuc(a1-4)]GlcNAc(b1-2)Man(a1-3)[Gal(b1-3)[Fuc(a1-4)]GlcNAc(b1-2)Man(a1-6)]Man(b1-4)GlcNAc(b1-4)[Fuc(a1-6)]GlcNAc", "in_short": "as §1"}, "[21]": {"target": "Gal(b1-3)[Fuc(a1-4)]GlcNAc(b1-3)Gal(b1-3)[Fuc(a1-4)]GlcNAc", "in_short": "as §1"}, "[22]": {"target": "Gal(b1-3)[Fuc(a1-4)]GlcNAc(b1-3)Gal(b1-4)[Fuc(a1-3)]GlcNAc", "in_short": "as §1"}, "[23]": {"target": "Gal(b1-3)[Fuc(a1-4)]GlcNAc(b1-6)GalNAc", "in_short": "as §1"}, "[24]": {"target": "Gal(b1-3)[GlcNAc(b1-6)]GalNAc", "in_short": "as §1"}, "[25]": {"target": "Gal(b1-3)[Neu5Ac(a2-6)]GalNAc", "in_short": "as §1"}, "[26]": {"target": "Gal(b1-3)[Neu5Ac(a2-6)]GlcNAc(b1-4)Gal(b1-4)Glc", "in_short": "as §1"}, "[27]": {"target": "Gal(b1-3)[Neu5Ac(b2-6)]GalNAc", "in_short": "as §1"}, "Gal(b1-4)Gal": {"target": "Gal(b1-4)Gal", "in_short": "as §1"}, "[28]": {"target": "Gal(b1-4)GalNAc(a1-3)[Fuc(a1-2)]Gal(b1-4)GlcNAc", "in_short": "as §1"}, "[29]": {"target": "Gal(b1-4)GalNAc(b1-3)[Fuc(a1-2)]Gal(b1-4)GlcNAc", "in_short": "as §1"}, "Gal(b1-4)Glc": {"target": "Gal(b1-4)Glc", "in_short": "as §1"}, "Gal(b1-4)Glc6S": {"target": "Gal(b1-4)Glc6S", "in_short": "as §1"}, "Gal(b1-4)GlcNAc": {"target": "Gal(b1-4)GlcNAc", "in_short": "as §1"}, "[30]": {"target": "Gal(b1-4)GlcNAc(a1-6)Gal(b1-4)GlcNAc", "in_short": "as §1"}, "Gal(b1-4)GlcNAc(b1-2)Man": {"target": "Gal(b1-4)GlcNAc(b1-2)Man", "in_short": "as §1"}, "[31]": {"target": "Gal(b1-4)GlcNAc(b1-2)Man(a1-3)Man(b1-4)GlcNAc(b1-4)GlcNAc", "in_short": "as §1"}}, "note": "This is one part of the list."}
{"binder": "B1", "values": [{"measurement": "glycan array binding signal (z-score)", "setting": "[1]", "value": -0.128}, {"measurement": "glycan array binding signal (z-score)", "setting": "[2]", "value": -0.125}, {"measurement": "glycan array binding signal (z-score)", "setting": "[3]", "value": 0.562}, {"measurement": "glycan array binding signal (z-score)", "setting": "[4]", "value": -0.066}, {"measurement": "glycan array binding signal (z-score)", "setting": "[5]", "value": -0.173}, {"measurement": "glycan array binding signal (z-score)", "setting": "[6]", "value": -0.207}, {"measurement": "glycan array binding signal (z-score)", "setting": "[7]", "value": -0.154}, {"measurement": "glycan array binding signal (z-score)", "setting": "[8]", "value": -0.097}, {"measurement": "glycan array binding signal (z-score)", "setting": "[9]", "value": -0.159}, {"measurement": "glycan array binding signal (z-score)", "setting": "[10]", "value": -0.035}, {"measurement": "glycan array binding signal (z-score)", "setting": "[11]", "value": -0.184}, {"measurement": "glycan array binding signal (z-score)", "setting": "[12]", "value": -0.213}, {"measurement": "glycan array binding signal (z-score)", "setting": "[13]", "value": -0.138}, {"measurement": "glycan array binding signal (z-score)", "setting": "[14]", "value": -0.286}, {"measurement": "glycan array binding signal (z-score)", "setting": "[15]", "value": -0.035}, {"measurement": "glycan array binding signal (z-score)", "setting": "[16]", "value": 2.02}, {"measurement": "glycan array binding signal (z-score)", "setting": "[17]", "value": -0.049}, {"measurement": "glycan array binding signal (z-score)", "setting": "Gal(b1-3)GlcNAc6S", "value": -0.194}, {"measurement": "glycan array binding signal (z-score)", "setting": "[18]", "value": -0.136}, {"measurement": "glycan array binding signal (z-score)", "setting": "[19]", "value": -0.142}, {"measurement": "glycan array binding signal (z-score)", "setting": "[20]", "value": -0.223}, {"measurement": "glycan array binding signal (z-score)", "setting": "[21]", "value": -0.257}, {"measurement": "glycan array binding signal (z-score)", "setting": "[22]", "value": -0.068}, {"measurement": "glycan array binding signal (z-score)", "setting": "[23]", "value": -0.154}, {"measurement": "glycan array binding signal (z-score)", "setting": "[24]", "value": -0.061}, {"measurement": "glycan array binding signal (z-score)", "setting": "[25]", "value": -0.212}, {"measurement": "glycan array binding signal (z-score)", "setting": "[26]", "value": -0.266}, {"measurement": "glycan array binding signal (z-score)", "setting": "[27]", "value": -0.205}, {"measurement": "glycan array binding signal (z-score)", "setting": "Gal(b1-4)Gal", "value": -0.267}, {"measurement": "glycan array binding signal (z-score)", "setting": "[28]", "value": -0.177}, {"measurement": "glycan array binding signal (z-score)", "setting": "[29]", "value": -0.236}, {"measurement": "glycan array binding signal (z-score)", "setting": "Gal(b1-4)Glc", "value": -0.184}, {"measurement": "glycan array binding signal (z-score)", "setting": "Gal(b1-4)Glc6S", "value": -0.225}, {"measurement": "glycan array binding signal (z-score)", "setting": "Gal(b1-4)GlcNAc", "value": -0.209}, {"measurement": "glycan array binding signal (z-score)", "setting": "[30]", "value": -0.091}, {"measurement": "glycan array binding signal (z-score)", "setting": "Gal(b1-4)GlcNAc(b1-2)Man", "value": -0.317}, {"measurement": "glycan array binding signal (z-score)", "setting": "[31]", "value": -0.195}]}
